Results from PubChem BioAssay AID485297 (National Center for Advancing Translational Sciences (NCATS), 2010).
Hit rate of the full screen: of about 320,000 compounds, about 9,100 (2.8%) were called active. The shares of active, inactive and inconclusive entries below differ from those in the screen. Calls come from the whole dose curve; as a rule, active = well fitted activation curve with a large enough effect; inconclusive = small, poorly fitted or top-dose-only effect; inactive = no such curve, though single readings can be large or run the other way. Potencies of inconclusive entries are left out as doubtful fits.

Assay: qHTS Assay for Rab9 Promoter Activators; note: nearly all actives have a fitted effect of over 60% in size; for activation, negative = inhibition: % of control where 0% means no effect
Conditions: Huh7 Rab9 promoter-luciferase reporter, luminescence, 24 h; series mostly up to 9.22 µM; activation, negative = inhibition: at the top concentration
Description: NIH Chemical Genomics Center [NCGC] NIH Molecular Libraries Probe Production centers Network [MLPCN] MLPCN Grant: MH089537-01 Assay Submitter (PI): Yiannis A. Ioannou NCGC Assay Overview: Niemann Pick Type C (NPC) is a rare neurodegenerative lipidosis that is characterized by lipid storage in the endosomal/lysosomal system. Treatment modalities for this devastating disease are currently non-existent due to the severe obstacles associated with accessing the central nervous system with proteins or genes (Ioannou, 2000). We have developed a new paradigm, termed "Orphan Receptor Bypass Therapy" (ORByT), to address these disorders. This paradigm posits the existence of endogenous "suppressor" proteins whose expression can dramatically improve LSD pathogenesis. The goal is the identification/discovery of small chemical compounds that can modulate the expression of these proteins and provide a new treatment modality for these devastating disorders. One such protein whose overexpression reverses aspects of the NPC phenotype is Rab9. We have developed and optimized a cell based luciferase reporter assay in 1536 well format for the identification of up-regulators of the Rab9 promoter.
The Rab9 promoter is cloned in front of the luciferase reporter gene, therefore […] promoter activation results in luciferase expression. Frozen stock of the Rab9 promoter transfected Huh7 cells were obtained from the laboratory of Dr. Yiannis Ioannou (The Mount Sinai School of Medicine, New York, NY). Cells were propagated and maintained at NCGC in medium containing RPMI-1640 supplemented with 10% FBS, 2mM L-glutamine, and 50ug/ml penicillin/streptomycin. Cells were harvested in and plated for assays in OP-MEM I reduced-serum medium supplemented with 10% FBS. The Amplite luciferase reporter gene assay kit was purchased from ABD Bioquest and prepared/stored according to manufacturers recommendations. qHTS Assay Setup: 1.Dispensed 5ul of Huh7 cells stably expressing Rab9-luciferase at a density of 1500 cells per well 1536-well plates. 2.Incubate cells at 37C, 5% CO2, and 95% humidity for 2 hours. 3.Transferred 23nl per well of compound in DMSO solution. 4.Incubated at 37C, 5% CO2, and 95% humidity for 24 hours. 5.Dispensed 3ul per well of Amplite reagent(ABD Bioquest) per well. 6.Incubate at ambient for 10 minutes. 7.Read using the luminescence protocol on the ViewLux plate reader (Perkin Elmer).
Potency is the fitted concentration of half-maximal effect; tags give direction and shape of the fitted curve.

Structure (SMILES)	Potency	activation, negative = inhibition
Fc1ccc(Cn2ccc(-c3cnc(-c4ccccc4)s3)n2)cc1	active: 3160 nM	
COC(=O)C1=C(C)NC(=O)/C1=C\c1cc(C)n(-c2ccccc2)c1C	inconclusive [activator, single point]	
O=C(Nc1ccccn1)c1ccc(S(=O)(=O)N2CCCCC2)cc1	inconclusive [activator, single point]	
Cn1ccnc1SCC(=O)Nc1ccc2nc(SCC(=O)NC3CC3)sc2c1	inconclusive [activator, single point]	
COc1ccc(C(=O)COC(=O)c2ccc(N(C)C)cc2)cc1	inconclusive [activator, single point]	
CCc1ccc(CCC(=O)Nc2ccccc2C(=O)O)o1	inconclusive [activator, single point]	
COc1cc2cc3c(N)c(C(=O)NCc4ccco4)sc3nc2cc1OC	inconclusive [activator, partial curve]	
O=C1CC(c2ccccc2)CC(=O)C1CS(=O)(=O)c1ccccc1 (stereo not given)		inactive: -6.53%
FC(F)(F)c1ccccc1NC(=S)Nn1cnnc1		inactive: -1.7%
Cc1ccccc1C(=O)Nc1nnc(SCC(=O)NC2CC2)s1	active: 2240 nM	
Cc1cc(NC(=O)Nc2ccc(C)c(C)c2)no1	inconclusive [activator, partial curve]	
CC(OC(=O)c1ccccc1O)C(=O)Nc1cccc(Cl)c1 (stereo not given)		inactive: -5.17%
COc1ccnc2c1c(=O)n(Cc1ccc(Cl)cc1Cl)c(=O)n2C		inactive: -0.505%
CCOc1ccc(-c2cc(C(=O)NCCCn3ccnc3)c3ccccc3n2)cc1		inactive: 18.7%
CN(Cc1ccccc1)S(=O)(=O)c1ccc2[nH]cc(C(=O)NCC3CCCO3)c(=O)c2c1 (stereo not given)	active: 2820 nM	
CCC(=O)c1cn(CC(=O)Nc2ccc(C)cc2C)c2ccccc12		inactive: -0.416%
CCC(C)c1ccc(NC(=O)Nc2cnccn2)cc1 (stereo not given)	inconclusive [activator, partial curve]	
O=C(Nc1ccccc1)ON=C1CCCC1	inconclusive [activator, partial curve]	
CC(=O)c1ccc(S(=O)(=O)N2CCN(C(=O)CCC3CCCC3)CC2)cc1		inactive: 3.73%
Cc1ccc(-c2cc(C(=O)Nc3cc(C)ccc3C)[nH]n2)c(O)c1	inconclusive [activator, single point]	
CC1=NN(C(N)=S)C(=O)C1N=Nc1ccc(C)cc1C (stereo not given)	inconclusive [activator, single point]	
O=C(O)c1ccc(N=Nc2c(O)[nH]c3ccc(Br)cc23)cc1	inconclusive [activator, single point]	
Cc1cc(=O)[nH]c(N/N=C/c2ccc(Br)s2)n1	inconclusive [activator, partial curve]	
O=C(Cc1cccs1)NCc1cccc(Cl)c1	inconclusive [activator, partial curve]	
CCc1ccc(Nc2nnc(SCC(=O)Nc3cccnc3Cl)s2)cc1		inactive: 3.96%

Structure (SMILES)	Potency	activation, negative = inhibition
NC(=O)C1CCN(c2nc(-c3cccc(Cl)c3)cs2)CC1	inconclusive [activator, partial curve]	
COc1ccc(Nc2nc(C)c3ccccc3n2)cc1	active: 2510 nM	
Cc1c(N=Cc2nc3ccccc3[nH]2)c(=O)n(-c2ccccc2)n1C		inactive: 8.05%
N/C(=N\OC(=O)c1ccc2c(c1)OCO2)c1ccncc1	active: 2510 nM	
COc1ccc(N2CS(=O)(=O)/C(=C/N(C)C)C2=O)cc1	inconclusive [activator, partial curve]	
COc1ccc(N2C(=O)c3ccccc3NC23CCCC3)cc1	active: 2510 nM	
Cn1c(NC(=S)Nc2ccccc2)nc2ccccc21	inconclusive [activator, single point]	
CC(C)c1ccc(NC(=O)[C@H](Cc2c[nH]c3ccccc23)NC(=O)[C@@H]2Cc3ccccc3CN2)cc1	inconclusive [activator, single point]	
Cc1ccc(CSc2nc3ccncc3n2CC(=O)Nc2cc(C)cc(C)c2)cc1	inconclusive [activator, single point]	
CCCN1C(=O)/C(=C2\SC(N3CCCCC3)=NC2=O)c2ccccc21	active: 2820 nM	
COc1ccc(C(=O)CNc2ccccc2Br)cc1	inconclusive [activator, partial curve]	
CC(C)c1ccc(N=C2NN=C(c3cccs3)CS2)cc1	active: 708 nM	
COc1ccc2c(c1O)Cc1ccccc1C2=O	inconclusive [activator, partial curve]	
Cc1nc2cc(NC(=O)Nc3cccc([N+](=O)[O-])c3)ccc2n1C	active: 708 nM	
COc1ccc(/C=N/NC(=O)Cc2cccs2)cc1	inconclusive [activator, partial curve]	
CC(C)(C)c1ccc(C(=O)NC(=S)NNC(=O)COc2ccccc2)cc1	inconclusive [activator, partial curve]	
COc1ccc(/C=C/C2=Nc3ccccc3NC(C)(C)C2)cc1OC	inconclusive [activator, single point]	
COC(=O)c1cccc(NC(=O)c2cccc(N3C(=O)CCC3=O)c2)c1		inactive: -2.95%
Cc1cc(Cl)ccc1OCC(=O)NNC(=O)CCOc1ccccc1		inactive: -2.53%
Nc1ccc2nc(-c3ccc(Cl)cc3)[nH]c2c1	inconclusive [activator, single point]	
CNc1oc(-c2ccc(OCc3ccccc3)cc2)nc1C#N	inconclusive [activator, single point]	
CCn1c2ccccc2c2nc3cc(C(=O)O)ccc3nc21		inactive: 29.8%
CC1=C(C#N)c2nc(N)c(C#N)c(C)c2/C1=C\c1ccc(-c2ccccc2C(=O)O)o1		inactive: -2.83%
CCCOC(=O)Nc1nc(-c2ccc(C)cc2)c(C)s1		inactive: 16%
COCCN(C(=O)CCC(=O)Nc1ccccn1)C(C(=O)NCCC(C)C)c1ccc(F)cc1 (stereo not given)		inactive: 0.609%
